Screen size: about 360,000 compounds; about 25,000 (6.9%) were called active. Inconclusive results, whose numbers are uncertain, are shown with a selection of clear calls. The call rests on the fitted dose curve; in most records, active means well fitted inhibition curve with a large enough effect; inconclusive means small, poorly fitted or top-dose-only effect; inactive means flat fitted curve, though single readings scatter. Potencies beside an inconclusive call are fits to weak or partial responses and may not hold up.
biological target: Luciferin 4-monooxygenase (Photinus pyralis) (UniProt P08659); experiment: qHTS profiling assay for firefly luciferase inhibitor/activator using purifed enzyme and Km concentrations of substrates (counterscreen for miR-21 project); settings: purified FLuc, luminescence inhibition; series mostly up to 57.5 µM; further: nearly all actives have a fitted effect of over 55% in size
Sequence of UniProt P08659 (P08659 whole entry, looked up): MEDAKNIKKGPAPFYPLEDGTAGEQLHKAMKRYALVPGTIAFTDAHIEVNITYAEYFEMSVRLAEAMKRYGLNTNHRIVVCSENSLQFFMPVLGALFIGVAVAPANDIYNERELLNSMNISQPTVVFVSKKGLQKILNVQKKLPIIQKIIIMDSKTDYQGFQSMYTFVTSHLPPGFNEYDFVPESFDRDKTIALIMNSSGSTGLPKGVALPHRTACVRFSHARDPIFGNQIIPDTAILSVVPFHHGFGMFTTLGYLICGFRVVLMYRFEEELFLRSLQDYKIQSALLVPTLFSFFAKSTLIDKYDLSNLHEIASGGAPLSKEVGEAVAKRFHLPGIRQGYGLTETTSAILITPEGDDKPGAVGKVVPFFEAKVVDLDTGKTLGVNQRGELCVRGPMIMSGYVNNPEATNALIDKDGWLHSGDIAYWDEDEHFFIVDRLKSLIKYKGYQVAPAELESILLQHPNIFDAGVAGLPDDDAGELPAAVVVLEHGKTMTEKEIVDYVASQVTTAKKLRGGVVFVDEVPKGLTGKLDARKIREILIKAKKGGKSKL
How it was run: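 Purified P. pyralis luciferase (10nM final) with 10uM D-luciferin and 10uM ATP (Km levels) in 50mM Tris acetate pH 7.5, 10mM Mg acetate, 0.01% Tween-20, 0.05% BSA; qHTS 6-point titration, ~60 µM downward; luminescence read.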
Potency means the concentration at half of the fitted maximal effect; tags describe the fitted curve by direction and shape.

SMILES	Potency
CCOC(=O)c1c(NC(=O)C2CC=CCC2C(=O)O)sc(C)c1CC (stereo not drawn)	inconclusive: 23.9 µM [inhibitor, single point]
O=C(Cn1cnc2c(oc3ccccc32)c1=O)N1CCCc2ccccc21	inconclusive: 37.9 µM [inhibitor, partial curve, poor fit]
CC1=Nc2ccccc2/C1=C\c1nc(-c2ccccc2)oc1O	active: 16.9 µM
CCn1c(SCC(=O)Nc2cccc(Cl)c2)nnc1-c1nonc1NC(C)=O	inactive
CC1CCCN(S(=O)(=O)Cc2ccc(Cl)cc2)C1 (stereo not drawn)	inconclusive: 26.9 µM [inhibitor, single point]
O=C(NC(=S)Nc1ccc(F)c([N+](=O)[O-])c1)c1ccccc1F	inconclusive: 37.9 µM [inhibitor, single point]
COc1ccc2c(CC(=O)N3CCN(S(=O)(=O)c4ccc(F)cc4)CC3)coc2c1	inactive
CCOc1ccc(C2NC(=O)NC(C)=C2[N+](=O)[O-])cc1OC (stereo not drawn)	inactive
Cc1ccccc1C(=O)O/N=C(\N)c1ccc([N+](=O)[O-])cc1	active: 19 µM
COc1ccc(C)cc1NC(=O)c1ccccc1NS(=O)(=O)c1ccc(Cl)s1	inconclusive: 23.9 µM [inhibitor, single point]
S=C(Nc1ccc(Br)cc1)NC1CCCC1	active: 12 µM
CCOC(=O)N1CCC(N(CCOC)C(=O)Nc2ccc(Cl)c(Cl)c2)CC1	inactive
CC(C)NC(=O)c1nn(C)c2c1CS(=O)(=O)c1ccccc1-2	inactive
O=C(/C=N/O)Nc1ccc2sc3ccccc3c2c1	inconclusive: 16.9 µM [inhibitor, partial curve]
C/C(=N\OC(=O)c1ccc(OC(C)C)cc1)c1ccc(C)c(C)c1	active: 13.5 µM
CCOC(=O)Cc1cnc(NC(=O)Cn2nnc(-c3ccc(OCC)cc3)n2)s1	inconclusive: 21.3 µM [inhibitor, single point]
Cc1cc(C(=O)Nc2nnc(C(F)(F)F)s2)no1	inconclusive: 19 µM [inhibitor, partial curve]
CCc1ccc(Sc2cc(C(=O)NCCCN3CCCC(C)C3)c3ccccc3n2)cc1 (stereo not drawn)	inactive
C=CCn1c(-c2cccc(OC)c2)nc2nc3ccccc3nc21	active: 15.1 µM
COC(=O)c1ccc(N/C=C/C(=O)c2ccccc2)cc1	active: 0.601 µM
Cc1ccccc1CCNCc1c(C(=O)O)c(C)n(Cc2c(F)cccc2Cl)c1C	inactive
Cc1cccc(-c2nc(-c3ccncc3)no2)c1	active: 3.01 µM
COc1ccc(Cl)cc1NC(=O)CN1CCC(n2nnc3cc(C)ccc32)CC1	inactive
CNc1nc(N/N=C/c2ccc([N+](=O)[O-])cc2)nc(Nc2ccccc2)n1	inconclusive: 23.9 µM [inhibitor, single point]

SMILES	Potency
O=C(N/N=C/c1ccc(OCC(=O)N2CCCCC2)cc1)c1ccccc1	inconclusive: 16.9 µM [inhibitor, partial curve]
CCOc1cc(/C=C2/C(=N)N3C(=NC2=O)SN=C3S(C)(=O)=O)ccc1OC(=O)c1ccco1	inconclusive: 23.9 µM [inhibitor, single point]
C=CCN=Cc1c(C)[nH]n(-c2ccccc2)c1=O	inconclusive: 37.9 µM [inhibitor, partial curve, poor fit]
COc1cccc(/C=C2\SC(=O)N(CCC(=O)NCCCn3ccnc3)C2=O)c1	inconclusive: 23.9 µM [inhibitor, partial curve, poor fit]
Cc1cccc(OCC(=O)Nc2ccncc2)c1C	inconclusive: 16.9 µM [inhibitor, partial curve]
CCc1ccnc(NC(=O)NS(=O)(=O)c2ccc(C)cc2)c1	inconclusive: 21.3 µM [inhibitor, partial curve, poor fit]
O=C(Nc1ccc(Oc2ccccc2)cc1)C1CCN(S(=O)(=O)c2ccccc2)CC1	inactive
Cn1nc(-c2ccc(Cl)cc2)cc1NC(=O)CSCC(=O)O	inconclusive: 26.9 µM [inhibitor, single point]
COc1ccc(-c2cc(=O)c3cc(F)ccc3[nH]2)cc1	inconclusive: 10.7 µM [inhibitor, partial curve]
Cc1cccc(N2CCC(N3CCN(C4CCCCC4)C(CCO)C3)CC2)c1C (stereo not drawn)	inconclusive: 37.9 µM [inhibitor, single point]
COc1ccc(NC(=O)Cn2c(=O)n(CC3CCCO3)c(=O)c3ccccc32)cc1 (stereo not drawn)	inactive
CN1CCN(c2ccc(-c3cccc(NC(=O)COc4ccc(Cl)cc4Cl)c3)nn2)CC1	active: 0.478 µM
CCOC(=O)c1c(SC)[nH]c2c(Cl)cccc2c1=O	inactive
COc1cc(-c2nc3cnccc3n2C)cc(OC)c1OC	inactive
COc1cc(/C=C2/C(=O)NN(c3ccc(Cl)cc3)C2=O)cc(OC)c1O	active: 12 µM
CCOC(=O)c1ccc(NC(=O)CN(C)S(=O)(=O)c2ccc(Br)s2)cc1	inconclusive: 37.9 µM [inhibitor, single point]
CNS(=O)(=O)c1cccc(C(=O)OCC(=O)c2cc3ccccc3o2)c1	inconclusive: 30.1 µM [inhibitor, single point]
CCc1ccc(-c2nc(CN3CCC(C(=O)NCc4ccco4)CC3)c(C)o2)cc1	inconclusive: 23.9 µM [inhibitor, single point]
CC(=O)OCC(=O)Nc1ccc(Br)c(C)c1	inconclusive: 37.9 µM [inhibitor, partial curve, poor fit]
CCN1CCN(c2ccc(NC(=O)c3ccccc3F)cc2Cl)CC1	inconclusive: 16.9 µM [inhibitor, partial curve]
O=C(NCc1ccccc1)c1cc2ccc(O)cc2oc1=O	active: 12 µM
COc1cccc(CNC(=O)c2cc(COc3c(F)cccc3F)on2)c1	inconclusive: 37.9 µM [inhibitor, single point]
O=C(NCc1ccco1)c1sc2ccccc2c1Cl	active: 21.3 µM
N/C(=N/OC(=O)c1ccc(Cl)cc1)c1ncc([N+](=O)[O-])s1	inconclusive: 8.49 µM [inhibitor, partial curve]

— PubChem BioAssay AID588342 (National Center for Advancing Translational Sciences (NCATS), 2011)
